Source: paper PMC4336329 (PLoS ONE, 2015)
About 2,200 (0.71%) of roughly 310,000 compounds showed an effect of 50% or more. The effect is printed as a negative number. Some of the results follow.

Target: human ether-à-go-go-related gene (hERG) potassium channel (human, UniProt Q12809)
Experiment: primary screen, population patch clamp on CHO cells stably expressing hERG

Sequence of human ether-à-go-go-related gene (hERG) potassium channel (Q12809 whole entry, looked up): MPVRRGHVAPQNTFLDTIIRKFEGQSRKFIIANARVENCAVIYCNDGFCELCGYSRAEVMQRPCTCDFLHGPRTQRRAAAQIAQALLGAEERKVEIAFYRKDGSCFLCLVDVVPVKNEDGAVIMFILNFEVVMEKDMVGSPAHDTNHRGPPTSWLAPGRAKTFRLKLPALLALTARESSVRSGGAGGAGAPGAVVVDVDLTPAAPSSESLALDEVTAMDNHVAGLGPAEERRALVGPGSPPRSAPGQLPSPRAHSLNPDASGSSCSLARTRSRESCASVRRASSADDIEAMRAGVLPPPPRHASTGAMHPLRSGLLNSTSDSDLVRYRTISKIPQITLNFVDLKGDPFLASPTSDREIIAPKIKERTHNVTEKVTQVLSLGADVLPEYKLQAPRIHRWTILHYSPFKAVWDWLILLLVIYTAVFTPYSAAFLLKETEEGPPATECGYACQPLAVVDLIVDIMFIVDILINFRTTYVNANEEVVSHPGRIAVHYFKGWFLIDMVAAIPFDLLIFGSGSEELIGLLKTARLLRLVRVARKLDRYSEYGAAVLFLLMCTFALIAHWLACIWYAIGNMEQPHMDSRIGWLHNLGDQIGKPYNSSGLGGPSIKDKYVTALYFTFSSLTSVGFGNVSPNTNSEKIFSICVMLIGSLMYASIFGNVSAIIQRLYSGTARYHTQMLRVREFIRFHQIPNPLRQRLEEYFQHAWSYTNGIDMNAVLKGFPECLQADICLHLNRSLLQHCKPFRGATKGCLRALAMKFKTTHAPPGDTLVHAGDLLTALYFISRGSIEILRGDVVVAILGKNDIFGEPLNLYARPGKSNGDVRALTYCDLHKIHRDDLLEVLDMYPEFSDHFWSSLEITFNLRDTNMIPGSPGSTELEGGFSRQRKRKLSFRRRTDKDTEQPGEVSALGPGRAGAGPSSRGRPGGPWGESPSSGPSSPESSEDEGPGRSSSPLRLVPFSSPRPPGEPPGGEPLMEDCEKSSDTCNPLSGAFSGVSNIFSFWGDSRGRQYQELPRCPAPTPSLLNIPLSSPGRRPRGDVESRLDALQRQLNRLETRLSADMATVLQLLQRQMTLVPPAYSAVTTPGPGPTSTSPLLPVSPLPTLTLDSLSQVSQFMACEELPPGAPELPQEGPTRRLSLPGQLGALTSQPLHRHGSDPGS

Compound | hERG current change (%, negative = inhibition) at 1uM [%]
NC(=O)c1cc(N=Nc2c(N)[nH]n(-c3c(Cl)cc(Cl)cc3Cl)c2=O)ccc1Cl | 12
COc1cc(/C=C2\C(=N)N3N=C(S(C)(=O)=O)SC3=NC2=O)ccc1OCCOc1ccc(C)cc1 | 14.1
CSc1ccccc1C(=O)NCCc1ccc(S(=O)(=O)N2CCCCC2)cc1 | 3.55
Cc1ccc(C2CC(c3ccco3)n3ncnc3N2)cc1 (stereo not drawn) | 4.7
COc1cccc(-n2cnc3sc4c(c3c2=O)CCC4)c1 | -3.68
O=C(NC(=S)Nc1ccc2oc(=O)ccc2c1)c1cccc(Cl)c1 | 5.3
CC1CC(C)CN(C(=S)NC2CCCCC2)C1 (stereo not drawn) | 1.15
Cc1ccc(NC(=O)Nc2cccc(Cl)c2)c(C(=O)O)c1 | 15.5
CC(C)(CCC(=S)N1CCOCC1)C1CCCCC1 | 13.4
Cc1nc2ccccc2cc1C(=O)N/N=C/c1ccccc1[N+](=O)[O-] | 11
C=CCc1ccc(OCc2ccc(C(=O)OC)o2)c(OC)c1 | 3.36
CC(=O)c1ccc(N2CCN(C(=O)C3CCN(S(=O)(=O)c4ccc5c(c4)CC(C)N5C(C)=O)CC3)CC2)cc1 (stereo not drawn) | 15.7
O=C(c1ccc(S(=O)(=O)c2ccccc2)cc1)N1CCc2ccccc2C1 | 13
CCOC(=O)Oc1ccc2c(c1)C(C)=CC(C)(C)N2C(=O)OCC | 12.4
COc1ccc(N=NC2C(=O)N(c3ccccc3)N=C2C)cc1 (stereo not drawn) | 22.3
NC(=O)Nc1ccc(F)cc1 | -3.77
Cc1ccc(SCc2cc(=O)n3ccsc3n2)c(C)c1 | -7.01
CCOC(=O)C1=NOC(CNC(=O)c2c(-c3ccccc3Cl)noc2C)C1 (stereo not drawn) | 16.3
CCN(C(=O)CN1C(=O)c2ccc([N+](=O)[O-])cc2C1=O)C1CCCCC1 | 6.36
O=C1C(Oc2ccccc2)C(c2cccs2)N1Cc1ccc2c(c1)OCO2 (stereo not drawn) | 4.75
O=S(=O)(c1ccc(Cl)cc1)c1cnc2ccccc2n1 | 13.7
COC(=O)C(NS(=O)(=O)c1ccc(N2CCCC2=O)cc1)c1ccccc1 (stereo not drawn) | 10.4
O=C(C(Cc1ccccc1)n1cccc1)N1CCCCC1 (stereo not drawn) | 7.29

Compound | hERG current change (%, negative = inhibition) at 1uM [%]
CCOC(=O)N1CCN(C(=O)COC(=O)CSc2cc(C)c(Br)cc2C)CC1 | -3.54
O=C(NCC1CCCO1)/C(=C/c1ccccc1)NC(=O)c1ccccc1 (stereo not drawn) | 7.74
Cc1c(OC(C)C(=O)NCCCN2CCOCC2)ccc2c3c(c(=O)oc12)CCCC3 (stereo not drawn) | 1.32
COc1ccc(N2CCN(C(=O)CCCSc3nc4ccccc4[nH]3)CC2)cc1 | -29.6
CNC(=O)c1cc(C(=O)c2ccccc2Br)c[nH]1 | 12.2
CCOC(=O)c1c(C)[nH]c(C(=O)Cn2c(=O)c3c(ncn3CC)n(Cc3ccccc3)c2=O)c1C | 1.3
Cc1ccsc1/C=N/NC(=O)c1nnn(-c2nonc2N)c1-c1ccccc1 | 13.5
COc1ccc(C(=O)NC(Cc2ccccc2)c2ccc3c(c2)OCCCO3)cc1 (stereo not drawn) | 3.96
Cc1cnc(C(=O)OCC(=O)c2ccc(C)s2)cn1 | 6.59
Cc1c(NC(=O)Nc2cccc(C#N)c2)c(=O)n(-c2ccccc2)n1C | 9.66
CCCn1c(SCC(=O)N2N=C3/C(=C/c4ccc(OC)cc4)CCCC3C2c2ccc(OC)cc2)n[nH]c1=O (stereo not drawn) | 18
CCOC(=O)C(C)Oc1ccc(NC(=O)C(Cl)(Cl)Cl)cc1 (stereo not drawn) | 2.49
CCOC(=O)Cn1nc(C)cc1NC(=O)c1ccncc1 | 5.9
C=CCn1cnc2c(nnn2-c2ccc(C)c(Cl)c2)c1=O | 9.97
C#CCN1C(=O)S/C(=C\c2cc3c(cc2OC)OCO3)C1=O | 3.03
Fc1ccccc1Sc1ccccc1CNC1=NCCN1.I | 14.6
COC(=O)C1(Cc2cc(-c3ccc(Cl)cc3)no2)CCN(C(=O)OC(C)(C)C)CC1 | -4.66
O=CN1CCN(S(=O)(=O)c2ccc(Cl)c(C(=O)O)c2)CC1 | 4.64
O=C(Nc1ccccc1)OCc1cn(-c2ccc(Cl)cc2)nn1 | 11.8
C=C(C)c1cccc(C(C)(C)NC(=O)N2CCN(c3ccc(OC)cc3)CC2)c1 | 11
O=c1cc(CSc2ccc([N+](=O)[O-])cc2)nc2sccn12 | -1.12
O=C(c1ccccc1)c1nn(-c2ccccc2)c2nnc(Cc3ccccc3)c(=O)n12 | 4.97
